# Results from PubChem BioAssay AID504832 (National Center for Advancing Translational Sciences (NCATS), 2011).
# Among all 310,000 compounds or so, about 18,000 (5.8%) were called active. This list was built around the results that the source calls inconclusive (neither active nor inactive); the mix of calls is not that of the screen. The call rests on the fitted dose curve; in most records, active means well fitted inhibition curve with a large enough effect; inconclusive means small, poorly fitted or top-dose-only effect, or another doubt; inactive means no such curve, though single readings can be large or run the other way. Potencies of inconclusive entries are left out as doubtful fits.
# Experiment: Primary qHTS for delayed death inhibitors of the malarial parasite plastid, 48 hour incubation
# Conditions: P. falciparum luciferase growth in erythrocytes; series mostly up to 28.7 µM
# Method in brief: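 Luciferase-expressing P. falciparum in infected erythrocytes (2% hematocrit, 0.1% parasitemia final) in RPMI 1640/0.5% Albumax were exposed to compound for 48 hours at 37 C, 5% CO2; growth read as luminescence.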
# Potency means the concentration at half of the fitted maximal effect; tags describe the fitted curve by direction and shape.
row,SMILES,Potency
1,Cc1ccc(OCCNC(=O)c2ccc(NC(=O)CC3SC(N4CCCC4)=NC3=O)cc2)cc1 (centres undefined),"inconclusive [inhibitor, single point]"
2,O=S1(=O)NC(C2CC2c2ccccc2)CCO1 (centres undefined),inactive
3,COc1ccc([C@H]2[C@H]3C=CC[C@@H](C)[C@@H]3C(=O)N2Cc2ccccc2)cc1Cl,"inconclusive [inhibitor, single point]"
4,Nc1nnc(SCCOc2ccc(Br)cc2)s1,inactive
5,CCOC(=O)C1CCCN(/C=C2\SC(=S)N(CC)C2=O)C1 (centres undefined),inactive
6,O=C(CCn1nc(-c2ccc(Cl)cc2)c2ccccc2c1=O)Nc1cccnc1,"inconclusive [inhibitor, single point]"
7,O=C(/C=C/c1ccc(O)cc1)c1ccc(O)cc1O,"inconclusive [inhibitor, single point]"
8,COc1ccc(C(=O)NCC(O)COc2ccc(C(C)(C)C)cc2)cc1[N+](=O)[O-] (centres undefined),inactive
9,CCN(CC)C(=O)CSC1=N/C(=C/c2ccco2)C(=O)N1c1ccc(OC)c(Cl)c1,"inconclusive [inhibitor, single point]"
10,O=C(CCCCn1c(=O)c2ccccc2n(Cc2ccc(Cl)cc2)c1=O)NCc1ccco1,active: 11.7 µM
11,Cn1c2c(c(=O)n(C)c1=O)C(C(F)(F)F)(C(F)(F)F)N=C(c1ccc(Cl)cc1)N2,"inconclusive [inhibitor, full curve]"
12,CC(NC(=O)/C(C#N)=C/c1cn[nH]c1-c1ccccc1)c1ccccc1 (centres undefined),inactive
13,COc1cccc(/C=C(/C(=O)OCC(=O)NC2CCCC(C)C2C)c2ccccc2)c1 (centres undefined),active: 13.1 µM
14,CCCCCCC(=O)N(O)C1CC(=O)N(c2ccc(F)cc2)C1=O (centres undefined),active: 4.65 µM
15,Cc1cc(C)nc(N2C(=O)CC(Cc3ccc(Cl)cc3)C2=O)n1 (centres undefined),inactive
16,COc1ccccc1N1CCN(c2ncc(C(=O)N3CCN(c4cccc(Cl)c4)CC3)c3ccccc23)CC1,"inconclusive [inhibitor, partial curve]"
17,NC(=O)C1CCN(C(=O)C2CCN(C(=O)Nc3ccccc3)CC2)CC1,"inconclusive [inhibitor, single point]"
18,C[C@@]12C(=O)N(c3ccc(F)cc3)C(=O)N1[C@@H]1c3ccccc3OC[C@@H]1[C@H]2c1ccccc1,"inconclusive [inhibitor, partial curve]"
19,O=C(/C(=N/N=C/c1ccc(O)c(O)c1)c1ccccc1)c1ccccc1,"inconclusive [inhibitor, single point]"
20,Cc1ccc(N(C(=O)c2snc(C(N)=O)c2N)C(C(=O)NC2CCCC2)c2ccco2)cc1 (centres undefined),active: 13.1 µM
21,CCOc1ccc(NC(=O)CCS(=O)(=O)c2ccc3c(c2)CCCN3C(C)=O)cc1,"inconclusive [inhibitor, single point]"
22,CNC(=O)c1ccsc1NC(=O)C1CCN(S(=O)(=O)c2cccs2)CC1,"inconclusive [inhibitor, single point]"
23,O=C(c1cc(-c2ccccc2)on1)N1CCCc2ccccc21,"inconclusive [inhibitor, single point]"

row,SMILES,Potency
1,Cc1ccc(Nc2nc(-c3sc(NC(=O)c4ccco4)nc3C)cs2)cc1,active: 9.28 µM
2,O=C(COC(=O)CCN=C1NS(=O)(=O)c2ccccc21)NNC(=O)c1ccccc1,"inconclusive [inhibitor, partial curve, poor fit]"
3,Cc1cc(NC(=O)c2n[nH]c(=O)c3ccccc23)ccc1Br,inactive
4,CC(C)(C)C1CCC(=NNc2nc3ccccc3[nH]2)CC1 (centres undefined),"inconclusive [inhibitor, single point]"
5,CC1C(c2ccccc2)N(C)C(c2ccccc2)CC1(O)c1ccc(F)cc1 (centres undefined),"inconclusive [inhibitor, single point]"
6,CCN(c1ccc2c(c1)OCO2)S(=O)(=O)c1cc(Br)cc2c1N(C(=O)C1CC1)CC2,active: 1.47 µM
7,Cc1[nH]c(=O)[nH]c(=O)c1S(=O)(=O)N1CCC(C(=O)N2CCN(c3cccc(C(F)(F)F)c3)CC2)CC1,active: 10.4 µM
8,C#CCOC(=O)CCCC(=O)NCCCCCCCC,inactive
9,CCOC(=O)c1cnc2ccc(C)cc2c1Sc1ccc(F)cc1,"inconclusive [inhibitor, full curve, poor fit]"
10,COc1ccc(C2=C(C=Nc3c(C)n(C)n(-c4ccccc4)c3=O)C(c3ccccc3C)c3ccccc3O2)cc1OC (centres undefined),active: 0.329 µM
11,Cc1ccc(-c2ccccc2NC(=O)C2C3C=CC(C3)C2C(=O)O)o1 (centres undefined),"inconclusive [inhibitor, partial curve]"
12,CC(=O)Nc1cccc(NS(=O)(=O)Cc2ccc(Cl)cc2)c1,inactive
13,CCOC(=O)c1sc(NC(=O)Nc2ccc(Cl)cc2)nc1C,"inconclusive [inhibitor, single point]"
14,Cc1ccccc1S(=O)(=O)Cc1ccc(C(=O)NCCN2CCCCC2C)o1 (centres undefined),"inconclusive [inhibitor, single point]"
15,CCc1ccccc1N=C1S/C(=C/c2ccccc2OCC(=O)N2CCOCC2)C(=O)N1C,"inconclusive [inhibitor, single point]"
16,CN1/C(=C\C=N\O)C(C)(C)c2ccccc21,inactive
17,COc1ccc(C2C(C#N)=C(N)N(N(C)C)C3=C2C(=O)CC(C)(C)C3)cc1 (centres undefined),inactive
18,O=C(c1cccc(S(=O)(=O)NCc2ccccc2)c1)N1CCCC(C(F)(F)F)C1 (centres undefined),"inconclusive [inhibitor, single point]"
19,COc1ccccc1CNC(=O)C(NC(=O)c1ccccc1)C(C)C (centres undefined),active: 13.1 µM
20,CSc1ccc(N=Nc2c(C)[nH]n(C)c2=O)cc1,"inconclusive [inhibitor, single point]"
21,O=C(c1cc(=O)[nH]c2ccccc12)N1CCN(Cc2ccc3c(c2)OCO3)CC1,"inconclusive [inhibitor, partial curve, poor fit]"
22,COC(=O)c1cc(C(=O)OCC(=O)NC(=O)c2ccccc2)cc([N+](=O)[O-])c1,"inconclusive [inhibitor, single point]"
23,O=C(N/N=C/c1ccc(Cl)c([N+](=O)[O-])c1)c1cc(-c2ccccc2)nc2ccccc12,"inconclusive [inhibitor, single point]"

row,SMILES,Potency
1,CCOc1ccccc1C(=O)NC1CC2CCCC(C1)N2Cc1ccc(C)cc1 (centres undefined),"inconclusive [inhibitor, single point]"
2,Cc1nc(Nc2ccc(Cl)cc2Cl)sc1C(=O)Nc1ccccc1,"inconclusive [inhibitor, full curve]"
3,Cc1c(-n2c(SCC(N)=O)nc3ccccc3c2=O)c(=O)n(-c2ccccc2)n1C,inactive
4,COc1ccc(CN2C(=O)NC(=O)/C(=C/c3ccc(OC)c(OC)c3OC)C2=O)cc1,"inconclusive [inhibitor, partial curve, poor fit]"
5,Cc1ccc(CNC(=O)CN(C)S(=O)(=O)c2cccc3nsnc23)cc1,inactive
6,Cc1ccc(C)c(NC(=O)CN(C)C(=O)/C=C/c2ccco2)c1,inactive
7,CN(CCc1ccccn1)C(=O)c1ccc(OC2CCN(CCc3ccccc3)CC2)cc1,inactive
8,Cc1cccc(CN2C(=O)c3ccccc3S(=O)(=O)c3ccc(C(=O)NCCCN4CCCC4)cc32)c1,active: 10.4 µM
9,Cn1c(=O)[nH]c(=O)c2c1nc(N1CCOCC1)n2CCSc1nc2ccccc2[nH]1,inactive
10,CCCc1c(C(=O)Nc2ccc(OC)cc2)cnn1-c1ccccc1,inactive
11,COC(=O)c1sccc1NC(=O)c1ccc(C)o1,"inconclusive [inhibitor, full curve, poor fit]"
12,COc1ccc(C2(CNC(=O)/C=C\c3ccco3)CCCC2)cc1OC,active: 11.7 µM
13,O=C(N/N=C/c1cccs1)C(=O)N1CCCC1,inactive
14,CCOC(=O)c1cc2c(C)n(-c3ccc(OCC)cc3)c(C)c2cc(C(=O)OCC)c1=O,"inconclusive [inhibitor, full curve]"
15,Cc1ccc(C(=O)NCC(=O)NCC(=O)OCc2ccc(F)cc2)cc1,"inconclusive [inhibitor, partial curve, poor fit]"
16,COc1ccc(N(C)C(=O)C2CCN(S(=O)(=O)c3cccc4nonc34)CC2)c(OC)c1,"inconclusive [inhibitor, single point]"
17,CCOC(=O)c1c(C)[nH]c(C(=O)CN(C)CC(=O)Nc2ccccc2C(F)(F)F)c1C,"inconclusive [inhibitor, single point]"
18,Cc1ccc(S(=O)(=O)Nc2c(O)c3ccccc3oc2=O)cc1,inactive
19,CCOc1cccc(-c2c(C(=O)N/N=C/c3ccc(Br)cc3)nnn2-c2nonc2N)c1,"inconclusive [inhibitor, partial curve]"
20,CCCn1c(SCC(=O)Nc2cc(S(=O)(=O)N3CCOCC3)ccc2Cl)n[nH]c1=O,"inconclusive [inhibitor, partial curve, poor fit]"
21,COC(CNC(=O)c1cc(C(=O)c2c(-c3c(Cl)cccc3Cl)noc2C)c[nH]1)OC,"inconclusive [inhibitor, single point]"
22,O=C(CSc1nnc(-c2cccs2)n1Cc1ccccc1)N1CCc2ccccc2C1,active: 6.57 µM
23,COC(=O)c1ccc(Oc2c(Cl)cccc2[N+](=O)[O-])cc1,"inconclusive [inhibitor, partial curve]"
